Reference: paper PMC4336329 (PLoS ONE, 2015)
In all, about 310,000 compounds went through this assay and about 2,200 (0.71%) showed an effect of 50% or more. Effects have a minus sign here. This is one part of the list.

target: human ether-à-go-go-related gene (hERG) potassium channel (human, UniProt Q12809); assay: primary screen, population patch clamp on CHO cells stably expressing hERG
Sequence (Q12809 whole entry, looked up): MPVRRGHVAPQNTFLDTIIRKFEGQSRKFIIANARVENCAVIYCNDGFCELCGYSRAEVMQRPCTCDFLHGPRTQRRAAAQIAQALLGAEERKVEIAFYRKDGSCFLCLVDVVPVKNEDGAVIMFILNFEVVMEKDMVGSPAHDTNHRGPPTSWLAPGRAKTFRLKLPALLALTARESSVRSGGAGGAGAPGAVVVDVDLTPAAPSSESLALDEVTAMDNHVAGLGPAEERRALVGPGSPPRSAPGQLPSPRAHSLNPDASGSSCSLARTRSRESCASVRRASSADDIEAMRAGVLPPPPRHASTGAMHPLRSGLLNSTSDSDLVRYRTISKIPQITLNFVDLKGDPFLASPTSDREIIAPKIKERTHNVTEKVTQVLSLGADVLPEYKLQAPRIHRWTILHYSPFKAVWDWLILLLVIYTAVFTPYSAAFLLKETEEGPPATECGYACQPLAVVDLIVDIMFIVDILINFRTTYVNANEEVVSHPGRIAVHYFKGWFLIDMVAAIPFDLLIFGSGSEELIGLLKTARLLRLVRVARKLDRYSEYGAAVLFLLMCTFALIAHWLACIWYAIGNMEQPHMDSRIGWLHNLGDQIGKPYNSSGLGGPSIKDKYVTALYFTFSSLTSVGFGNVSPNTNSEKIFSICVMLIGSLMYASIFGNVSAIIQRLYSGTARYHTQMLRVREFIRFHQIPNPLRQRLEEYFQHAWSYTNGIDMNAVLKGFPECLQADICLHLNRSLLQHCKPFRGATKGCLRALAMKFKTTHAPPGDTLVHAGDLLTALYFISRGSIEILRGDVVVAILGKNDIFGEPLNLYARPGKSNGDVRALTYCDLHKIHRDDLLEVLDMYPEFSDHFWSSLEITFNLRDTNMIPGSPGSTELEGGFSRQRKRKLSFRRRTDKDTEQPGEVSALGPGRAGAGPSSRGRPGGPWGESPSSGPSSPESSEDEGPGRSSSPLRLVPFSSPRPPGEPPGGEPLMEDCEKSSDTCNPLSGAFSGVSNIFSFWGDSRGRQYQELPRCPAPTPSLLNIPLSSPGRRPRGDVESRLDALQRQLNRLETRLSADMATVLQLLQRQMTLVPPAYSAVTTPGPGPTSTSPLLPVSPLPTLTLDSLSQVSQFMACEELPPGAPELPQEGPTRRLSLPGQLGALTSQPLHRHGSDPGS

SMILES | hERG current change (%, negative = inhibition) at 1uM [%]
CCOc1ccc(N2C(=O)c3cccnc3C2Nc2ccc(Cl)cc2)cc1 (stereo not shown) | 14.2
CCCOc1cccc(C(=O)NCCNC(=O)c2ccco2)c1 | 18.6
CCCN1CCN(C(=O)c2cn(CC(C)C)c(=O)c3cc(OC)c(OC)cc23)CC1 | 1.26
CC1=C(C(=O)Nc2ccccc2)C(c2cccc([N+](=O)[O-])c2)Nc2nc3ccccc3n21 (stereo not shown) | 2.42
COc1cccc(C2=NOC(C(=O)N3CCc4ccccc4C3)C2)c1 (stereo not shown) | 5.71
O=C1c2ccc(-c3ccc4c(c3)C(=O)N(CCCO)C4=O)cc2C(=O)N1CCCO | 6.96
O=C(Cn1cnc2ccccc2c1=O)Nc1ccc(S(=O)(=O)N2CCCC2)cc1 | 7.5
O=C(Nc1ccc2oc(=O)ccc2c1)c1ccc(-c2cccc(Cl)c2)o1 | 12.3
Cc1cc(NC(=O)CN2CCCCC2)no1.O=C(O)C(=O)O | 17.4
Cn1cc(SCC(=O)NCC2CCCO2)c2ccccc21 (stereo not shown) | -12
CN(C)c1ccc(/C=N/n2c(-c3cccnc3)n[nH]c2=S)cc1 | 12.3
Cc1ccccc1Cn1cc(NC(=O)c2nc3ncccn3n2)cn1 | -7.99
CC1(c2ccc(Cl)cc2Cl)NC(=O)N(CC(=O)Nc2cccnc2Cl)C1=O (stereo not shown) | 11.4
COc1cc(OC)c(NC(=O)c2ccc3c(SCC(=O)O)c4c(nc3c2)CCCC4)cc1Cl | 16.7
NC(=O)CSc1nnc(-c2ccc(S(=O)(=O)N3CCOCC3)cc2)n1Cc1ccccc1 | -0.797
Cc1cnc(NC(=O)[C@H](C)N2C(=O)C3CCCCC3C2=O)s1 (stereo partly shown) | 17.5
COc1ccc(Cl)cc1NC(=O)C(C)OC(=O)c1ccc(NS(=O)(=O)c2ccc3[nH]c(=O)[nH]c3c2)cc1 (stereo not shown) | 12.8
COc1ccc(CNCCc2c[nH]c3ccccc23)c(OC)c1OC.O=C(O)C(=O)O | 14.7
CC(C)Cn1c(-c2cccs2)nc2ccccc21 | 0.916
CCn1nc(C)cc1C(=O)N1CCCC(C(=O)c2ccc(OC)cc2C)C1 (stereo not shown) | 9.69
O=C(CCc1ccccc1)N1CCN(c2ccccn2)CC1 | 1.99
CCOc1ccc(S(=O)(=O)NCCC(=O)NCC2CCCO2)cc1 (stereo not shown) | 15.9

SMILES | hERG current change (%, negative = inhibition) at 1uM [%]
COC(=O)COc1ccc(S(=O)(=O)Nc2ccc3c(c2)OCO3)cc1 | 12.9
COc1cc(NC(=O)c2ccccc2Cl)c2ncccc2c1 | 1.95
Cc1ccnc(NC(=O)CCC(=O)N(CC(=O)NC(C)(C)C)Cc2ccc3c(c2)OCO3)c1 | 7.87
CCOC(=O)c1cc(-c2cccs2)nc2onc(C)c12 | 11.1
O=C(NC(=S)Nc1ncccn1)c1ccc(Cl)cc1Cl | 7.59
O=C(Cn1cccn1)N1CCCC(Nc2ccc(F)c(F)c2)C1 (stereo not shown) | -15.6
NC(=O)c1ccsc1NC(=O)c1ccc(S(=O)(=O)N2CCCCC2)cc1 | 3.14
COc1ccc(C2CC(c3c(O)cc(C)oc3=O)=NCCS2)c(OC)c1 (stereo not shown) | 6.26
Cc1nc(N2CCN(c3ccccc3O)CC2)c2c(-c3ccccc3)csc2n1 | 13.1
CCOc1cc(N2CCOCC2)c(OCC)cc1NC(=O)c1ccc2ncsc2c1 | 9.61
Cc1ccc(/C=C/S(=O)(=O)NCC(=O)OCC(=O)Nc2ccc(C(N)=O)cc2)cc1 | -6.35
O=C1/C(=C/c2cccs2)SC(=S)N1CCC(=O)N1CCCCC1CCO (stereo not shown) | 13.9
CC(=O)Nc1ccc(S(=O)(=O)N(C)CC(=O)OCC(=O)Nc2cc(C)on2)cc1 | 7.17
COc1ccc(S(=O)(=O)Nc2ccc(F)c(F)c2)cc1C(=O)N1CCOCC1 | 13.1
CCc1ccc(NC(=O)C(=O)NCCN2CCN(C(=O)c3ccco3)CC2)cc1 | -49.1
Cc1cc(C)nc(N2CCC(C(=O)Nc3ccc4c(c3)OCO4)CC2)n1 | 1.95
Cc1cccc(C)c1NC(=O)c1cc2c(=O)c3ccccc3oc2nc1C(F)(F)F | -3.29
COc1ccc(C)cc1NS(=O)(=O)c1ccc(Cl)nc1 | 6.69
CCN(CC)C(=O)c1ccc(-c2ccccc2)cc1 | 12.4
O=C1NC(=S)S/C1=C/c1ccc(OC(=O)c2ccco2)cc1 | 10.8
NS(=O)(=O)c1ccc(N/N=C/c2ccc[nH]2)c([N+](=O)[O-])c1 | 1.58
CCc1nc(SCC(=O)c2c[nH]c3ccccc23)n[nH]1 | 11.8

SMILES | hERG current change (%, negative = inhibition) at 1uM [%]
O=C(NC1CC1)C1CCN(S(=O)(=O)c2ccc(Cl)c([N+](=O)[O-])c2)CC1 | 4
Cn1c(C(C#N)C(=O)c2ccco2)nc2ccccc21 (stereo not shown) | 13.4
CCC[C@H](N[C@@H](C)C(=O)N1[C@H](C(=O)O)C[C@@H]2CCCC[C@@H]21)C(=O)OCC | 16.5
CCOCCCNC(=O)C(c1ccc(OC)cc1)N(Cc1ccc2c(c1)OCO2)C(=O)c1cnccn1 (stereo not shown) | 7.66
CC(C)c1nc2sc3c(SCC(N)=O)ncnc3c2c2c1CCC2 | 10.8
Cc1nc(SCC(=O)N2CCN(c3ccccc3)CC2)c2oc3ccccc3c2n1 | 0.726
Cc1c(C(=O)NCc2ccc3c(c2)OCO3)oc2ccccc12 | 8.9
O=S(=O)(c1ccccc1)c1cccc(S(=O)(=O)N2CCCCC2)c1 | 3.89
COc1ncccc1-c1nnn(-c2ccc(Cl)nc2)n1 | 13
C=CCOc1cccc(C2C(C(=O)c3cccs3)=C(O)C(=O)N2Cc2cccnc2)c1 (stereo not shown) | 2.04
CCCC(=O)n1nc(-c2ccccc2)nc1N | 8.89
Cc1cc(=O)oc2cc(OCC(O)CN3CCN(c4ccccc4)CC3)ccc12.Cl (stereo not shown) | -6.39
C#CCOCCOCCOCCNc1nc(N2CCN(C(=O)[C@H](Cc3ccc(O)cc3)n3cc([C@@H](N)CC(C)C)nn3)CC2)nc(N2CCN(C(=O)[C@H](Cc3cc4ccccc4[nH]3)n3cc([C@@H](N)CC(C)C)nn3)CC2)n1.Cl | 13.1
Cc1ccc(C(=O)N/N=C/c2ccc(OC(=O)c3ccccc3Cl)cc2)cn1 | 6.07
FC(F)(F)C1CC(c2cccs2)Nc2ncnn21 (stereo not shown) | 1.93
O=C1c2ccccc2C(=O)N1CCC(c1ccc(F)cc1)c1ccco1 (stereo not shown) | -1.72
Cc1nn(Cc2cccc3ccccc23)c(C)c1NC(=O)c1cccnc1 | 11.2
Cc1cccc(NC(=S)Nc2ccc(N3CCOCC3)cc2)c1C | 11.8
Cn1cc(CN2CCC(CO)CC2)c(-c2ccc(Oc3ccccc3)cc2)n1 | -20.3
CCCCCCCOc1ccc(OC(=O)c2cccnc2)cc1 | 9.35
NC(=S)NCc1cccnc1 | 12.8
C(=N\c1ncnc2sccc12)/NOCc1ccccc1 | 5.55

SMILES | hERG current change (%, negative = inhibition) at 1uM [%]
COC(=O)c1ccc(CSc2nnnn2-c2ccc(C)cc2C)o1 | 1.4
Cc1cc(NC(=O)C2C3C(=O)N(Cc4ccc(Cl)cc4)C(C(=O)NC(C)(C)C)C34C=CC2(C)O4)no1 (stereo not shown) | 14.2
O=C(CSc1ncnc2c1cnn2-c1ccccc1)NC1CCS(=O)(=O)C1 (stereo not shown) | 3.51
COc1ccc(CNC(=O)C2CC(c3ccc(OC)cc3)=NO2)cc1 (stereo not shown) | 14.3
O=C(OCC(=O)c1ccccc1Br)c1ccccn1 | 8.25
COc1ccc(OC)c(NC(=O)CN2CCc3ccccc3C2)c1 | 11.5
O=C(c1ccc(Cl)c(S(=O)(=O)NCc2cccnc2)c1)N1CCCC1 | 10.1
O=C1NC(c2ccccc2)=C(c2nc3ccccc3s2)C(c2ccccc2)N1 (stereo not shown) | -3.46
CCO[C@H]1OC(C(=O)N2CCN(Cc3ccc4c(c3)OCO4)CC2)=C[C@@H](C(C)(C)C)[C@@H]1CCCO | 8.11
CCOC(=O)N1CCN(C(=O)c2ccc(OC)cc2)CC1 | 8.91
Cc1ccc(-c2ccc(/C=C3\SC(N4CCOCC4)=NC3=O)o2)cc1 | -54.6
C=CCn1c(Cc2ccc(OC)cc2)nnc1SCc1nc2ccccc2c(=O)[nH]1 | 4.92
COc1ccc(-n2c(C)c(C(C)=O)c3cc(OCC(N)=O)ccc32)cc1 | 6.75
O=c1ccccn1CCOc1ccccc1Cl | 1.88
CCC(=O)NC(=S)NNC(=O)COc1ccc(Br)cc1 | -10.2
COc1ccc(-n2c(Cc3cccn3C)nnc2SCC(=O)Nc2cc(Cl)ccc2OC)cc1 | -50.9
O=C(COc1ccc2ccccc2c1)N[C@@H](C(=O)O)c1ccc(O)cc1 | 12
Cc1ccc(NC(=O)CSCC(=O)OCc2cc(=O)oc3cc(O)ccc23)c(C)c1 | -9.3
Cc1cc(Br)ccc1N=C1C(=O)Nc2ccccc21 | 14.2
